Test results from PubChem BioAssay AID1963576 (National Center for Advancing Translational Sciences (NCATS), 2024).
In all, about 46,000 compounds went through this assay and about 60 (0.1%) were called active. Not shown: some 3% with an inconclusive outcome. The call rests on the fitted dose curve; in most records, active means well fitted inhibition curve with a large enough effect; inconclusive means small, poorly fitted or top-dose-only effect; inactive means no such curve, though single readings can be large or run the other way. Some of the results follow.

Experiment: Primary qHTS assay for Inhibitors of ovarian cancer metastasis using an organotypic tumor microenvironment (TME) model. Further: nearly all actives have a fitted effect of over 65% in size.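 On activity change, negative = inhibition: plate controls were DMSO wells for no effect and tomatine positive control wells for full effect.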
Conditions: SKOV3ip1-GFP adhesion/invasion on 3D omental model, fluorescence; series mostly up to 45.8 µM; activity change, negative = inhibition: at the top concentration
Outline: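 Adhesion/invasion was scored as fixed GFP-labeled SKOV3ip1 cell counts (488/509 nm), normalized to DMSO and tomatine controls. Cancer cells in serum-free medium, with four compound doses (0.36-46 umol/L), sat 2 hr at RT then 16 hr at 37 C on a 48 hr fibroblast/mesothelial/ECM culture.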

Activity change, negative = inhibition, inactive:
CCCSc1ncc(Cl)c(C(=O)Nc2ccc(OC)cc2OC)n1 -8.54%, CCOc1ccc(NC(=O)CCn2c(-c3ccc(F)cc3)cc(C(C)=O)c2C)cc1 -5.43%, Cc1ccc(C2C=C(c3ccc(Cl)cc3)Nc3nc(NC(=O)CCC(=O)O)nn32)cc1 (configuration not stated) -8.69%, O=S(=O)(NCCc1ccc(Cl)cc1)c1ccc(N2CCCCS2(=O)=O)cc1 -6.07%, COc1ccc(C2=C(C)C(=O)N(Cc3ccc(C(=O)NCc4ccccc4C)cc3)S2(=O)=O)cc1 -9.01%, CCn1cnc2c(=O)oc3ccc(S(=O)(=O)N4CCN(c5cc(C)ccc5C)CC4)cc3c21 0.773%, CCC(C)Cn1c(COc2ccc(OC)cc2)nc2ccccc21 (configuration not stated) -2.84%, COc1ccccc1OCCCn1c(-c2ccc(Cl)cc2)nc2ccccc2c1=O 2.54%, CCCOc1ccc(C(=O)Nc2cc3nn(-c4ccc(CC)cc4)nc3cc2C)cc1 0.634%, O=C(CSc1nnc(-c2ccccc2)c(-c2ccccc2)n1)Nc1ccccc1Cl 10%, O=C(CCC(=O)N1CC2CCCN2c2ccccc21)NCc1ccccc1F (configuration not stated) -7.63%, Cc1cccc(C(=O)Nc2nnc(S(=O)(=O)N3CCC(C)CC3)s2)c1 0.777%, COc1ccc(-c2cc(C(=O)Nc3ccc(C#N)cc3)no2)cc1 0.469%, CCOC(=O)Cc1c(C)nc2c(-c3ccc(OC)c(OC)c3)c(C)nn2c1C -7.5%, CC(=O)c1ccc(NC(=O)C(Cc2ccccc2)NS(=O)(=O)c2ccc3c(c2)CCC(=O)N3)cc1 (configuration not stated) 34.4%, CCC(=O)N1CCc2cc(S(=O)(=O)NCCC(=O)NC(C)c3ccccc3)ccc21 (configuration not stated) 7.22%, Cc1cc(C)cc(OC(=O)c2cc(-c3ccc4c(c3)OCCO4)on2)c1 4.78%, COc1ccc(/C=C/c2nc(-c3ccccc3O)n(-c3ccccc3)n2)cc1OC 4.03%, Cc1ccc(NC(=O)C(=O)NCC(c2cccnc2)N2CCOCC2)cc1C (configuration not stated) 3.74%, CCS(=O)(=O)N1CCc2cc(C(=O)N3CCN(c4cccc(C(F)(F)F)c4)CC3)ccc21 -7.52%, CCOc1ccc(-n2c(Cc3ccccc3)nnc2SCc2nc(-c3ccccc3C)no2)cc1 13.5%, CC(=O)NCCNC(=O)CCCc1nnc2n(CCC(C)C)c(=O)c3sccc3n12 3.8%, Cc1ccc(C)c(Cn2c(=O)c3c(nc4n3CCN4c3ccc(F)cc3)n(C)c2=O)c1 2.52%, Fc1cccc(-c2nc(-c3ccncc3)no2)c1 2.03%, Cc1ccc(C(=O)c2oc3ccccc3c2NC(=O)c2cc(=O)c3ccccc3o2)cc1 1.06%, Oc1cccc(C(Nc2ccccn2)c2ccc3cccnc3c2O)c1Cl (configuration not stated) -3.63%, CCOCCCNC(=O)C(c1ccc(OC)cc1)N(Cc1cccs1)C(=O)c1ccc(NC(C)=O)cc1 (configuration not stated) -8.37%, COc1ccc(CNC(=O)Cn2ccc3cc(S(=O)(=O)N4CCCCCC4)ccc32)cc1OC -4.2%, COc1ccc2oc(=O)cc(CN3CCN(C(=O)c4ccccc4F)CC3)c2c1 16.7%, COc1ccc(NC(=O)CSc2nc3nc(C)cc(C)n3n2)cc1 37.3%, Cc1c(CNCc2ccc(Cl)cc2)c(C(=O)O)c(C)n1Cc1ccc(F)cc1 2.6%, CCOc1ccc(CNS(=O)(=O)c2ccc3[nH]c4c(c3c2)CCCC4)cc1OC -8.83%, CCOc1ccc(CNC(=O)C2CCN(S(=O)(=O)c3c(C)noc3/C=C/c3ccc(C)cc3)CC2)cc1OC 3.45%, CC(=O)Nc1ccc(NC(=O)CC2Sc3ccccc3NC2=O)cc1 (configuration not stated) -0.396%, COc1ccc(NC(=O)Cn2c(CCC(=O)O)ccc2-c2ccccc2)cc1Cl 8.61%, COc1cccc(CNC(=O)CCc2nnc3n(C)c(=O)c4sccc4n23)c1 -7.76%, CCCN(CCC)CCCNC(=O)C1CCC(CNS(=O)(=O)c2ccc(NC(C)=O)cc2)CC1 (configuration not stated) -3.38%, Nc1ccc(S(=O)(=O)Nc2ccccn2)cc1 -4.41%, CCN1CCC(n2cc(CNc3cc(Cl)c4ncc(C#N)c(Nc5ccc(F)c(Cl)c5)c4c3)nn2)CC1 -1.46%, CCOC(=O)c1c(C)oc2nc(C)nc(Nc3cccc(OC)c3)c12 9.02%, CCOC(=O)Cc1ccc(NC(=O)n2ncc3c(C)cccc32)cc1 3.08%, Cn1cc(-c2ccncc2)c(-c2ccc(OCc3ccc4ccccc4n3)cc2)n1 4.46%, CCC(O)c1nc2ccccc2n1Cc1cccc(Cl)c1 (configuration not stated) 4.96%, COc1ccc(C(CNC(=O)COc2ccc(C)c(C)c2)N2CCCCC2)cc1 (configuration not stated) -26.6%, COc1cc(OC)cc(C(=O)Nc2cc3nn(-c4ccccc4)nc3cc2Cl)c1 -12.1%, Cc1cc(C)c(NC(=O)Cn2nc3c(cc2=O)CCCC3)c(C)c1 -1.63%, COCCCN1C(=O)N(c2ccccc2)C(=O)C1CC(=O)Nc1ccc(F)cc1 (configuration not stated) 4.7%, O=C(NCc1ccc2c(c1)CCN2C(=O)c1ccc(F)cc1)c1ccc(Br)o1 -8.37%

outcome, inactive:
O=C(NCc1ccc(F)cc1)c1ccc2c(c1)N(Cc1ccc(F)cc1Cl)C(=O)CS2, COc1ccc(NC(=O)Nc2nnc(SCC(=O)Nc3cccc(C)c3C)s2)cc1, CCOC(=O)CC(NC(=O)c1cc2cc(OC)ccc2oc1=O)c1ccc(OC)cc1 (configuration not stated), Cc1cccc(OCC(=O)OCc2cc(=O)n3nc(C4CC4)sc3n2)c1, CC1CCN(C(=O)CN2CCSc3ccc(S(=O)(=O)N(C)C)cc32)CC1, CCOC(=O)c1c(C)oc2ncnc(Nc3ccc(CC)cc3)c12, CCOc1ccc(CNC(=O)CCS(=O)(=O)c2cc3c4c(c2)CCN4C(=O)CC3)cc1, O=C(C1CCN(S(=O)(=O)c2cccc3nonc23)CC1)N1CCN(c2ccc(F)cc2)CC1, CCc1ccc(OC(=O)CSc2nnc(-c3ccc4c(c3)OCO4)o2)cc1, CCn1c(CN2CCC(C)CC2)nc2cc(NC(=O)c3ccccc3[N+](=O)[O-])ccc21, COc1cccc(-c2cn3c(n2)sc2cc(C(=O)NCc4cccs4)ccc23)c1, Cc1ccc(Cl)cc1N1CCN(C(=O)c2cc(S(=O)(=O)N3CCC(C)CC3)cn2C)CC1, CCOc1ccc(CC(=O)Nc2c(C(=O)c3ccc(F)cc3)oc3ccccc23)cc1OCC, Cc1ccccc1CSc1cn(CCNC(=O)c2cccs2)c2ccccc12
